Results as given in paper PMC12796746, “Profiling the TRPV4 ankyrin repeat domain interactome and its disruption by neuromuscular disease-causing mutations” (The Journal of Biological Chemistry, 2025).

Columns and labels:
Assay in all cases: peptide or protein array; HuProt Human Proteome Microarray v2.0, full-length human proteins spotted in duplicate; V5-tagged TRPV4 protein in solution at 1 μM, 1 h at 4 °C, 150 mM NaCl, 2.7 mM KCl, 25 mM Trizma base, 0.05% Tween-20, pH 7.4; detected with Alexa Fluor 647 anti-V5; hit: z-score >= 2 (N terminus: both of 2 slides; ARD constructs: at least 2 of 3 slides)
Conditions in all cases: both partners purified
PACSIN2 = target: T1, PACSIN2 (human, UniProt Q9UNF0 1-486)
T1 construct: PACSIN2, human, spotted on the HuProt array; source: bought: CDI Laboratories (HuProt v2.0 microarray)
T1 sequence (looked up): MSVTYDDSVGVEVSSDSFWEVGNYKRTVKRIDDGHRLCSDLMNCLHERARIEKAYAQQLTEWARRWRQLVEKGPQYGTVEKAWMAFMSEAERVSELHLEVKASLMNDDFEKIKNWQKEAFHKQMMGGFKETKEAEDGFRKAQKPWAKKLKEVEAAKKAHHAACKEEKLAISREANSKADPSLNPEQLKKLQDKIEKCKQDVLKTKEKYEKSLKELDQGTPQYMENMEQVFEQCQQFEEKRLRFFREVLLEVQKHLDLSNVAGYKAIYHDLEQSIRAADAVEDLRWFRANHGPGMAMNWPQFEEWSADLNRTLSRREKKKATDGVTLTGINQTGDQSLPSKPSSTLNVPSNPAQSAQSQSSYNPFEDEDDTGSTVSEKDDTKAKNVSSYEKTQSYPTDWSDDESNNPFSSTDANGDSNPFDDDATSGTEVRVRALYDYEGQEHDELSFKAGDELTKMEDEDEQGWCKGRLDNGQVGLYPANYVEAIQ

[1] = target: T2, PSD95 (on the HuProt array) (human, UniProt P78352)
T2 construct: PSD95 (encoded by the DLG4 gene), human, spotted on the HuProt array; also called PDS95; source: bought: CDI Laboratories (HuProt v2.0 microarray)
T2 sequence (P78352 whole entry): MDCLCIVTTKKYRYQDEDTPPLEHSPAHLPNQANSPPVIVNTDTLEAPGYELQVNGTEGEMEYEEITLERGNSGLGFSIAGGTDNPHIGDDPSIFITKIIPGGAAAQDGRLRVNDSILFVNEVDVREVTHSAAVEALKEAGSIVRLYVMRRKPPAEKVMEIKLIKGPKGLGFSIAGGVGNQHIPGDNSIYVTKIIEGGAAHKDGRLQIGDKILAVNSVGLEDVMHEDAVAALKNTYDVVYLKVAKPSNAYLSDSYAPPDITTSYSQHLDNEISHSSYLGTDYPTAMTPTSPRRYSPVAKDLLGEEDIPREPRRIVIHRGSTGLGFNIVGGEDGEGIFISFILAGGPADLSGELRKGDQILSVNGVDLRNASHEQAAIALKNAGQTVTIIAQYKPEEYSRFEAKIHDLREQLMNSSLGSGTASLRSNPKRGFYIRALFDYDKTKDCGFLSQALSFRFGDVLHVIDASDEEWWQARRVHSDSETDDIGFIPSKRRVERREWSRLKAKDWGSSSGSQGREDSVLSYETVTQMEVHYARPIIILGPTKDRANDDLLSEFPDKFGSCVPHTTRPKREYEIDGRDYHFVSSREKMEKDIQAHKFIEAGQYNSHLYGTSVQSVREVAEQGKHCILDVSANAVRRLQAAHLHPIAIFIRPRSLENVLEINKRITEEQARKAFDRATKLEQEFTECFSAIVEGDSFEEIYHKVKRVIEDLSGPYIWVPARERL

PKD2L2 = target: T3, PKD2L2 (human, UniProt Q9NZM6 1-624)
T3 construct: PKD2L2, human, spotted on the HuProt array; source: bought: CDI Laboratories (HuProt v2.0 microarray)
T3 sequence (looked up): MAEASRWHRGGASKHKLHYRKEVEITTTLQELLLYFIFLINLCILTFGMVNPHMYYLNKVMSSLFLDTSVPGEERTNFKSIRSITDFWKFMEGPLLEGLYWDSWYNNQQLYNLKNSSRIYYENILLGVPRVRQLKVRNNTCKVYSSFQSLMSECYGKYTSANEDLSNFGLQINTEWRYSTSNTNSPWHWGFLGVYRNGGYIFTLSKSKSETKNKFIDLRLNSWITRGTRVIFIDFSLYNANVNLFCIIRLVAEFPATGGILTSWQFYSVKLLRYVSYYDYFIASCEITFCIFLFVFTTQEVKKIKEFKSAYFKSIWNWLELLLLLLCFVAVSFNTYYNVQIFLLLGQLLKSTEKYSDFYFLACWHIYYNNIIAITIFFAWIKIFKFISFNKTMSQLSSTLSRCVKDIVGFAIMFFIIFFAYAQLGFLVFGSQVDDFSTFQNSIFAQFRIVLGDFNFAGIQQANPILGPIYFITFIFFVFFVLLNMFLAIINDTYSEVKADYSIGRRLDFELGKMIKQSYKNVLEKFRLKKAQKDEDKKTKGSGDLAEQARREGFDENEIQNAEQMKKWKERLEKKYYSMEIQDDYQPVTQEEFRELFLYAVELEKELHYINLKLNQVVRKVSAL

AGO3 = target: T4, AGO3 (human, UniProt Q9H9G7 1-860)
T4 construct: AGO3, human, spotted on the HuProt array; source: bought: CDI Laboratories (HuProt v2.0 microarray)

AKT3 = target: T5, AKT3 (human, UniProt Q9Y243 1-479)
Sequence of AKT3 (Q9Y243 whole entry): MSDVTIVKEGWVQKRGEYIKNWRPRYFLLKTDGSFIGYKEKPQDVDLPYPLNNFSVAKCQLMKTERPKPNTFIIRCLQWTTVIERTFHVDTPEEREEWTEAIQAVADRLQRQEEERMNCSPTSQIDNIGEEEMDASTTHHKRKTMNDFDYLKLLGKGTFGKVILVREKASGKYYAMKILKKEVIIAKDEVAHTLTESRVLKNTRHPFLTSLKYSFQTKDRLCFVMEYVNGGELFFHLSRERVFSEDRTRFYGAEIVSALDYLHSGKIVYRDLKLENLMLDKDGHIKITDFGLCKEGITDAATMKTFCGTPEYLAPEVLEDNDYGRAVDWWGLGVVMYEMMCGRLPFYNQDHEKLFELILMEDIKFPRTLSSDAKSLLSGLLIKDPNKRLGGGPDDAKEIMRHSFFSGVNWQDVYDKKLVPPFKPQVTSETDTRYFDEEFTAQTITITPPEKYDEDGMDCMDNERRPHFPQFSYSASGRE
T5 construct: AKT3, human, spotted on the HuProt array; source: bought: CDI Laboratories (HuProt v2.0 microarray)

Measured: binding result

B1: TRPV4^WT N-terminal domain (IDR and ARD, […]) (domain or fragment)
chain: not shown
notes: TRPV4, human, N-terminal domain (IDR and ARD), […]; also called TRPV4^WT N terminus; full N terminus; source: E. coli BL21(DE3), purified; not shown: His6, C-terminal, kept; V5, C-terminal, kept
binds: all assays above
